Measurements as given in a collection of fitness landscapes (doi:10.1016/j.celrep.2020.107928).
The full ranking holds about 81,000 sequences; the median of “one-hybrid fitness for binding NBS DNA” is about -0.1, and the highest 2% start at about 0.36. The list shows a part of the results.

B1: Caulobacter ParB omega fusion; a variant is named by its letters at X, in order, B8GW30 (parent)
chain: MESVVVGEPGMSEGRRGLGRGLSALLGEVDAAPAQAPGEQLGGSREAPIEILQRNPDQPRRTFREEDLEDLSNSIREKGVLQPILVRPSPDTAGEYQIVAGERAWRAAQRAGLKTVPIMVRELDDLAVLEIGIIENVQRADLNVLEEALSYKVLMEKFERTQENIAQTIGKSXSHVANXMRLLXLPDEVQSYLVSGELTAXHARAIAAAADPVALAKQIIEGGLSVRETEALARKAPNLSAGKSKGGRPPRVKDTDTQALESDLSSVLGLDVSIDHRGSTGTLTITYATLEQLDDLCNRLTRGI

Variants of: B1
Assay: one-hybrid fitness for binding NBS DNA (the Noc-binding site; scaled: cognate 1, non-cognate 0); higher = stronger binding
Conditions: with NBS DNA site
Method in brief: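 In E. coli USO, a HIS3 reporter with its site placed 19 bp from the promoter was used to select Caulobacter ParB variants randomised at four specificity codons. Growth lasted 48 hours at 37°C on histidine-free M9 containing 0.1 mM IPTG and 5 mM 3-AT. Fitness was taken as the log change in variant-to-wild-type read ratio from Illumina sequencing of pre- and post-selection plasmids, rescaled between the non-cognate and cognate sites.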

| Variant | one-hybrid fitness for binding NBS DNA |
| --- | --- |
| QALY | ≤ 0.2 |
| LPKR | ≤ 0.2 |
| GVFG | ≤ 0.2 |
| APVC | ≤ 0.2 |
| HDMG | ≤ 0.2 |
| WPGL | ≤ 0.2 |
| LILC | ≤ 0.2 |
| GSYG | ≤ 0.2 |
| NYLT | ≤ 0.2 |
| KMNS | ≤ 0.2 |
| IYVA | ≤ 0.2 |
| LAKA | ≤ 0.2 |
| FVNR | ≤ 0.2 |
| DPSY | ≤ 0.2 |
| YCVC | ≤ 0.2 |
| MPHF | ≤ 0.2 |
| FITI | ≤ 0.2 |
| HPEI | ≤ 0.2 |
| QYVS | 0.231 |
| EDQY | ≤ 0.2 |
| VWLG | ≤ 0.2 |
| IRIE | ≤ 0.2 |
| MTDI | ≤ 0.2 |
| VVRT | ≤ 0.2 |

| Variant | one-hybrid fitness for binding NBS DNA |
| --- | --- |
| TVFC | ≤ 0.2 |
| STYK | ≤ 0.2 |
| KGPC | ≤ 0.2 |
| MAAF | ≤ 0.2 |
| EYNG | ≤ 0.2 |
| QNFS | ≤ 0.2 |
| ETLI | ≤ 0.2 |
| HEWG | ≤ 0.2 |
| TGDY | ≤ 0.2 |
| YVST | ≤ 0.2 |
| RFAE | ≤ 0.2 |
| PVYW | ≤ 0.2 |
| RYER | 0.215 |
| SCDA | ≤ 0.2 |
| QMMR | 0.523 |
| LKPG | ≤ 0.2 |
| HELY | 0.201 |
| KQAV | ≤ 0.2 |
| TTKL | ≤ 0.2 |
| QSVI | ≤ 0.2 |
| LIPV | ≤ 0.2 |
| DNHP | ≤ 0.2 |
| TRGP | ≤ 0.2 |
| VRCK | ≤ 0.2 |

| Variant | one-hybrid fitness for binding NBS DNA |
| --- | --- |
| FWPP | ≤ 0.2 |
| GPKM | ≤ 0.2 |
| AKSS | ≤ 0.2 |
| GETG | ≤ 0.2 |
| YQFT | ≤ 0.2 |
| GRGI | ≤ 0.2 |
| QTLE | ≤ 0.2 |
| NHHY | ≤ 0.2 |
| ERRN | ≤ 0.2 |
| YHSG | ≤ 0.2 |
| FYFT | ≤ 0.2 |
| LKAG | ≤ 0.2 |
| DIIL | ≤ 0.2 |
| YQNH | ≤ 0.2 |
| YYKW | ≤ 0.2 |
| IEPN | ≤ 0.2 |
| VSSL | ≤ 0.2 |
| HSSW | ≤ 0.2 |
| RQYI | ≤ 0.2 |
| LMVR | ≤ 0.2 |
| DCYC | ≤ 0.2 |
| RPRL | ≤ 0.2 |
| HYAV | ≤ 0.2 |
| DMLS | ≤ 0.2 |

| Variant | one-hybrid fitness for binding NBS DNA |
| --- | --- |
| AQQK | ≤ 0.2 |
| PEQV | ≤ 0.2 |
| NCEW | ≤ 0.2 |
| GKNA | ≤ 0.2 |
| QCYV | ≤ 0.2 |
| WISS | ≤ 0.2 |
| YRPV | ≤ 0.2 |
| YGYG | ≤ 0.2 |
| NEVW | ≤ 0.2 |
| FGHR | ≤ 0.2 |
| RLPN | ≤ 0.2 |
| KRVH | ≤ 0.2 |
| REGF | ≤ 0.2 |
| SHQL | ≤ 0.2 |
| LHKA | ≤ 0.2 |
| QKRT | 0.757 |
| WHTC | ≤ 0.2 |
| YVAS | ≤ 0.2 |
| RKLS | 0.496 |
| QGCS | ≤ 0.2 |
| LYVY | ≤ 0.2 |
| NHVT | ≤ 0.2 |
| WCLG | ≤ 0.2 |
| KVMW | ≤ 0.2 |

| Variant | one-hybrid fitness for binding NBS DNA |
| --- | --- |
| AQFK | ≤ 0.2 |
| QLNQ | ≤ 0.2 |
| QCSD | ≤ 0.2 |
| MLKV | ≤ 0.2 |
| TAQG | ≤ 0.2 |
| YDSI | ≤ 0.2 |
| ADPD | ≤ 0.2 |
| TTNQ | ≤ 0.2 |
| CRTM | ≤ 0.2 |
| HIDR | ≤ 0.2 |
| AAST | ≤ 0.2 |
| PFAK | ≤ 0.2 |
| KWKT | ≤ 0.2 |
| MRPC | ≤ 0.2 |
| IMHR | ≤ 0.2 |
| GDLG | ≤ 0.2 |
| WPLL | ≤ 0.2 |
| EKFF | ≤ 0.2 |
| SEHY | ≤ 0.2 |
| IIAL | ≤ 0.2 |
| YWVC | ≤ 0.2 |
| QNMR | ≤ 0.2 |
| GHKV | ≤ 0.2 |
| GARV | ≤ 0.2 |

| Variant | one-hybrid fitness for binding NBS DNA |
| --- | --- |
| NHLR | ≤ 0.2 |
| YIWV | ≤ 0.2 |
| FPYG | ≤ 0.2 |
| RCDS | ≤ 0.2 |
| LGLW | ≤ 0.2 |
| HFER | ≤ 0.2 |
| TYDM | ≤ 0.2 |
| CYVG | ≤ 0.2 |
| LRAW | ≤ 0.2 |
| GRMS | ≤ 0.2 |
| SKPK | ≤ 0.2 |
| KRSS | 0.421 |
| ASGV | ≤ 0.2 |
| SSRV | ≤ 0.2 |
| NAKG | ≤ 0.2 |
| LTNW | ≤ 0.2 |
| LTDR | ≤ 0.2 |
| LSID | ≤ 0.2 |
| DMYT | ≤ 0.2 |
| LEAP | ≤ 0.2 |
| WDFS | ≤ 0.2 |
| RQPI | ≤ 0.2 |
| PICT | ≤ 0.2 |
| QYEL | ≤ 0.2 |

| Variant | one-hybrid fitness for binding NBS DNA |
| --- | --- |
| PEIA | ≤ 0.2 |
| GPPW | ≤ 0.2 |
| NYMV | ≤ 0.2 |
| QDTV | ≤ 0.2 |
| NQSM | ≤ 0.2 |
| SSLL | ≤ 0.2 |
| HTWA | ≤ 0.2 |
| KLTS | ≤ 0.2 |
| GRQR | ≤ 0.2 |
| RRTV | 0.286 |
| CPRM | ≤ 0.2 |
| ADIL | ≤ 0.2 |
| MSNT | ≤ 0.2 |
| CKHA | ≤ 0.2 |
| PVCL | ≤ 0.2 |
| FGTG | ≤ 0.2 |
| TQHT | ≤ 0.2 |
| ITFS | ≤ 0.2 |
| YNSN | ≤ 0.2 |
| RAWY | ≤ 0.2 |
| NYVG | ≤ 0.2 |
| QAAN | ≤ 0.2 |
| ASQL | ≤ 0.2 |
| TGPS | ≤ 0.2 |

| Variant | one-hybrid fitness for binding NBS DNA |
| --- | --- |
| YWRS | ≤ 0.2 |
| FLSI | ≤ 0.2 |
| RTVC | ≤ 0.2 |
| INEC | ≤ 0.2 |
| RTAG | ≤ 0.2 |
| LGKM | ≤ 0.2 |
| WGLI | ≤ 0.2 |
| RWAD | ≤ 0.2 |
| THLC | ≤ 0.2 |
| RAAW | ≤ 0.2 |
| DRIG | ≤ 0.2 |
| FTES | ≤ 0.2 |
| KPRC | ≤ 0.2 |
| TRMI | ≤ 0.2 |
| PDPM | ≤ 0.2 |
| YGEM | ≤ 0.2 |
| AVGC | ≤ 0.2 |
| RSGC | ≤ 0.2 |
| RADR | ≤ 0.2 |
| GKHA | ≤ 0.2 |
| SNSF | ≤ 0.2 |
| QHTG | ≤ 0.2 |
| MPAG | ≤ 0.2 |
| DFHP | ≤ 0.2 |

| Variant | one-hybrid fitness for binding NBS DNA |
| --- | --- |
| CVVR | ≤ 0.2 |
| DRKM | ≤ 0.2 |
| TLEG | ≤ 0.2 |
| DPTG | ≤ 0.2 |
| AMGY | ≤ 0.2 |
| ESAL | ≤ 0.2 |
| LHAH | ≤ 0.2 |
| FTAR | ≤ 0.2 |
| KPAR | ≤ 0.2 |
| LYPP | ≤ 0.2 |
| CFPV | ≤ 0.2 |
| HVPN | ≤ 0.2 |
| MERR | ≤ 0.2 |
| SKIK | ≤ 0.2 |
| HDPP | ≤ 0.2 |
| GLKA | ≤ 0.2 |
| VQTR | ≤ 0.2 |
| SAAW | ≤ 0.2 |
| PYGV | ≤ 0.2 |
| DVNT | ≤ 0.2 |
| TRNM | ≤ 0.2 |
| NRES | ≤ 0.2 |
| FGQC | ≤ 0.2 |
| RFSW | ≤ 0.2 |

| Variant | one-hybrid fitness for binding NBS DNA |
| --- | --- |
| RNRD | ≤ 0.2 |
| CITN | ≤ 0.2 |
| YRRG | ≤ 0.2 |
| QKAQ | ≤ 0.2 |
| CIVI | ≤ 0.2 |
| HYDL | ≤ 0.2 |
| QWER | ≤ 0.2 |
| ENWG | ≤ 0.2 |
| STFF | ≤ 0.2 |
| NDHS | ≤ 0.2 |
| HRFE | ≤ 0.2 |
| RHSI | ≤ 0.2 |
| NDNV | ≤ 0.2 |
| ANCF | ≤ 0.2 |
| KLVS | ≤ 0.2 |
| PMVT | ≤ 0.2 |
| FCDG | ≤ 0.2 |
| DYYN | ≤ 0.2 |
| PDKY | ≤ 0.2 |
| HRNF | ≤ 0.2 |
| TNAV | ≤ 0.2 |
| PCMS | ≤ 0.2 |
| EVQA | ≤ 0.2 |
| VRRA | 0.203 |

| Variant | one-hybrid fitness for binding NBS DNA |
| --- | --- |
| RCDK | ≤ 0.2 |
| LADL | ≤ 0.2 |
| ARFV | ≤ 0.2 |
| GVAG | ≤ 0.2 |
| KHHW | ≤ 0.2 |
| PCCT | ≤ 0.2 |
| RGSF | ≤ 0.2 |
| TIGL | ≤ 0.2 |
| DPTL | ≤ 0.2 |
| GWLC | ≤ 0.2 |
| YGYR | ≤ 0.2 |
| GCDA | ≤ 0.2 |
| CNLL | ≤ 0.2 |
| SELG | ≤ 0.2 |
| ATTA | ≤ 0.2 |
| SAMW | ≤ 0.2 |
| CPGE | ≤ 0.2 |
| PQLV | ≤ 0.2 |
| HMDR | ≤ 0.2 |
| HHPG | ≤ 0.2 |
| RCER | 0.245 |
| GKTL | ≤ 0.2 |
| IAWR | ≤ 0.2 |
| DAYL | ≤ 0.2 |

| Variant | one-hybrid fitness for binding NBS DNA |
| --- | --- |
| DAPR | ≤ 0.2 |
| TSSG | ≤ 0.2 |
| PSMK | ≤ 0.2 |
| PDPI | ≤ 0.2 |
| GGIR | ≤ 0.2 |
| ASQA | ≤ 0.2 |
| SPLT | ≤ 0.2 |
| EIEG | ≤ 0.2 |
| ATAE | ≤ 0.2 |
| AGKL | ≤ 0.2 |
| ENTS | ≤ 0.2 |
| FDMR | ≤ 0.2 |
| PYWD | ≤ 0.2 |
| PVWC | ≤ 0.2 |
| YHPW | ≤ 0.2 |
| VQHT | ≤ 0.2 |
| RFSQ | ≤ 0.2 |
| TYFG | ≤ 0.2 |
| SFDR | ≤ 0.2 |
| MQDV | ≤ 0.2 |
| KHIR | ≤ 0.2 |
| KEAT | ≤ 0.2 |
| GSHV | ≤ 0.2 |
| CDLV | ≤ 0.2 |

| Variant | one-hybrid fitness for binding NBS DNA |
| --- | --- |
| CRPC | ≤ 0.2 |
| IFTI | ≤ 0.2 |
| MWGP | ≤ 0.2 |
| LACW | ≤ 0.2 |
| RHLQ | ≤ 0.2 |
| RKPT | 0.236 |
| MPWS | ≤ 0.2 |
| GSEF | ≤ 0.2 |
| SPRR | ≤ 0.2 |
| AAYW | ≤ 0.2 |
| YTSK | ≤ 0.2 |
| THKS | ≤ 0.2 |
| PVRC | ≤ 0.2 |
| TWVY | ≤ 0.2 |
| HVVR | ≤ 0.2 |
| RFWW | ≤ 0.2 |
| SIKC | ≤ 0.2 |
| DTLW | ≤ 0.2 |
